Laboratory results: the supplement of paper PMC4604168 (melanoma cell lines)
Some of the results follow. Most values come without repeats; read them as rough.

Each compound was assayed on RVH-421 (assay: cell count relative to DMSO control; melanoma cells; higher = more viable cells). Settings: library dose: standard library concentration; 72 h.
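Also: cells treated in 1,536-well plates, then fixed and DAPI-stained, with nuclei counted from automated high-throughput microscope images.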

| Compound | cell count [%] |
| --- | --- |
| NC1(c2ccc(-c3nc4ccn5c(=O)[nH]nc5c4cc3-c3ccccc3)cc2)CCC1 + Cn1cc(/C=C2\C(=O)Nc3cccnc32)c2ccccc21 [GW441756] (first compound 2 µM, partner dose 2 µM) | 78.8 |
| C=C(c1ccc(C(=O)O)cc1)c1cc2c(cc1C)C(C)(C)CCC2(C)C [Bexarotene] + O=C1NC(=O)/C(=C/c2ccc(-c3ccc(F)cc3O)o2)S1 [AS252424] (first compound 10 µM, partner dose 5 µM) | 99.6 |
| CN(c1ncccc1CNc1nc(Nc2ccc3c(c2)CC(=O)N3)ncc1C(F)(F)F)S(C)(=O)=O + Cn1c(Nc2ccc(C(F)(F)F)cc2)nc2cc(Oc3ccnc(-c4ncc(C(F)(F)F)[nH]4)c3)ccc21 [CHIR265] (first compound 0.4 µM, partner dose 0.4 µM) | 58.4 |
| CS(=O)(=O)c1ccc(C(=O)Nc2ccc(Cl)c(-c3ccccn3)c2)c(Cl)c1 [vismodegib] + Cn1nnc2c(C(N)=O)ncn2c1=O [temozolomide] (first compound 5 µM, partner dose 10 µM) | 96.5 |
| CCCS(=O)(=O)Nc1ccc(F)c(C(=O)c2c[nH]c3ncc(Cl)cc23)c1F + Cn1nnc2c(C(N)=O)ncn2c1=O [temozolomide] (first compound 0.4 µM, partner dose 10 µM) | 65.2 |
| C=C(c1ccc(C(=O)O)cc1)c1cc2c(cc1C)C(C)(C)CCC2(C)C [Bexarotene] + C#Cc1cccc(Nc2ncnc3cc(OCCOC)c(OCCOC)cc23)c1 [erlotinib] (first compound 10 µM, partner dose 4 µM) | 82.9 |
